Out of some 1,200 compounds screened, about 10 (0.8%) were called active. Not shown: some 4% with an inconclusive outcome. Calls follow the shape of the dose curve; as a rule, active = well fitted inhibition curve with a large enough effect; inconclusive = small, poorly fitted or top-dose-only effect; inactive = no such curve, though single readings can be large or run the other way. The list shows a part of the results.
% is scaled to controls: 0 for no effect and ±100 for the full control effect.

The nature of this assay: qHTS Assay to Find Inhibitors of Chronic Active B-Cell Receptor Signaling: Hit Validation in OCI-Ly3 Assay. The note with it: OCI-Ly3 IkB-luciferase reporter, Chroma-Glo luminescence, 4 h; series mostly up to 46.1 µM; activity change, negative = inhibition: at the top concentration. The text has this: Diffuse large B-cell lymphoma (DLBCL) is the most common category of non-Hodgkin lymphoma, with ~20,000 new cases per year in the United States. DLBCL should be regarded as a collection of different neoplasms. Microarray gene expression analysis has defined two principal types of DLBCL, named for their similarity to normal B cell stages or activation states: a germinal center B-cell (GCB) type, and an activated B-cell (ABC) type. In ABC-DLBCL, a constitutive high-level activity of the NF-kappaB family of transcription factors has been observed (1) and NF-kappaB target genes are more highly expressed in ABC primary tumors than in GCB tumors. Functional studies have shown a constitutive high-level activity of the IkappaB (inhibitor of kappa-B) kinase (IKK) complex. […] Further analysis of DLBCL primary tumors for NF-kappaB target gene expression imply that although CARD11 is required for constitutive IKK activity in all ABC-DLBCL lines, mutations in CARD11 may be the root cause of IKK activation only in lines or tumors with such mutations. In other words, CARD11 mutations may explain NF-kappaB activation in only 10% of ABC-DLBCL cases. […] This process has been termed 'chronic active BCR signaling' (CABS). The goal of this screen is to find small-molecule inhibitors of the CABS pathway found in ABC-DLBCL lines using a cell-based assay that measures IkappaBalpa stability, which has already been extensively validated in the OCI-Ly3 line (PubChem AID:445; REF: 4). […] Hits from the primary screen were tested in this selectivity secondary assay. NIH Molecular Libraries Probe Production Network [MLPCN] NIH Chemical Genomics Center [NCGC] MLPCN Grant: R03 DA031086 PI Name: Dr. R. Eric Davis
Cells were seeded in 1536-well plates at 5000 cells/3ul in IMDM medium containing 0.5% FBS, w/o phenol red, L-glutamine, 25 mM HEPES, 3 mg/ml sodium bicarbonate. After centrifugation for 1 min. at 1000 rpm, 23 nl of compounds or DMSO were delivered to each well using a pin tool. Then 1ul 80ng/ml doxycycline was dispensed into white solid 1536-well plates and the plates were incubated at 37C/5% C02 in a cell incubator for 4 hrs. Then 4 ul Chroma-Glo luminescent substrate mix (Promega) was added to each well. The plate was incubated at R.T. for 10-15 min. The plates were measured on a ViewLux plate reader for green luminescence (540/20 nm filter) and red luminescence (618/8 nm filter). The green and red luminescent signals were corrected for red and green luminescence filter overlap using previously determined filter calibration constants (determined using the procedure outlined in the Promega Technical Manual). The %Activity was determined from the ratio of corrected green/red luminescent values. Green luminescent and ratio %Activity was determined by normalizing to the difference in signal between basal cells (0% Activity) and cells incubated with 10 uM of the proteasome inhibitor MG-132 (100% Activity). Red luminescent %Activity was normalized to the difference between red luminesence in basal cells (0%Activity) and zero luminescence (-100% Activity). Concentration-response curves were fitted to the signals arising from the green luminescence (I-kappa-B-alpha-luciferase fusion; IkB-luc) and the red luminescence (unfused luciferase; luc) as well as the calculated ratio. The concentration-effect curves were then classified based on curve quality (r2), response magnitude and degree of measured activity. Compounds were then categorized based on their concentration-response curves for all three datasets (Ikb-luc, luc and ratio).
With `CCCCOc1ccc2c(C)cc(=O)oc2c1OCCCC`, the “activity change, negative = inhibition” value was inactive: -2.1%.

As to `COc1ccc(C2CC(c3ccncc3)=NN2c2ccc(S(N)(=O)=O)cc2)cc1` (configuration not stated), the “activity change, negative = inhibition” value was inactive: -5.91%.

On to `CCC(=NCCc1c(C)[nH]c2ccc(C)cc12)C1=C(O)CC(c2ccccc2)CC1=O` (configuration not stated), for which the “activity change, negative = inhibition” value was inactive: -7.19%.

`O=C(N/N=C/C(Br)=C\c1ccccc1)c1ccc2nc[nH]c2c1`: the “activity change, negative = inhibition” value was inactive: -11.1%.

With `CCCn1nnc(NC(=S)NC(=O)c2ccc(-c3ccc(Br)cc3)o2)n1`, the “activity change, negative = inhibition” value is inactive: -0.674%.

For the compound `COc1cc(C2C(C#N)=C(N)Oc3cc4c(cc32)OCO4)cc(OC)c1OC` (configuration not stated), the “activity change, negative = inhibition” value was inactive: -3.1%.

For the compound `COc1ccccc1NS(=O)(=O)c1cccc(C(=O)N/N=C/c2cn(-c3ccccc3)nc2-c2ccccc2)c1`, the “activity change, negative = inhibition” value was inactive: 0.349%.

With `CC(=O)c1c(C)[nH]c(C(=O)OCC(=O)c2c[nH]c3ccccc23)c1C`, the “activity change, negative = inhibition” value is inactive: -5.35%.

Regarding `COc1ccc(CNc2nc(NCc3ccc(OC)cc3)c3ncn(C4CCCC4)c3n2)cc1`, the “activity change, negative = inhibition” value was inactive: -2.03%.

Regarding `NC(=S)N/N=C\c1ccc(-c2cccc(Cl)c2Cl)o1`, the “activity change, negative = inhibition” value was inactive: -0.203%.

For the compound `O=C(Cc1ccc(-n2c(=O)c3ccccc3n(Cc3ccccc3F)c2=O)cc1)NCC1CCCO1` (configuration not stated), the “activity change, negative = inhibition” value is inactive: -0.1%.

`Cc1ccc(C(=O)c2cc([N+](=O)[O-])ccc2N2CCCCC2)cc1C`: the “activity change, negative = inhibition” value is inactive: -4.53%.

For `Nc1ncnc2c1ncn2C1OC(COP(=O)(O)O)C(O)C1O` (configuration not stated), the “activity change, negative = inhibition” value was inactive: 0.196%.

Turning to `O=C(Oc1c(CN2CCOCC2)cc(Cl)c2cccnc12)c1ccc(F)cc1`, the “activity change, negative = inhibition” value was inactive: -3.45%.

For the compound `CCCCOc1ccccc1C1CC(=O)NC2=C1C(=O)CCC2` (configuration not stated), the “activity change, negative = inhibition” value is inactive: -0.837%.

For the compound `CC1=Nc2cc(C(=O)NC3CCCCC3)ccc2Sc2ccc(Cl)cc21`, the “activity change, negative = inhibition” value is inactive: -3.9%.

Consider `CCc1ccc(NC(=O)CSc2nc(=O)n(CCCN3CCOCC3)c3c2CCCC3)cc1`, for which the “activity change, negative = inhibition” value is inactive: -0.51%.

Regarding `C/C(=N\NC(=O)c1c([N+](=O)[O-])c(C)nn1C)c1ccc(NC(=O)C2CCCC2)cc1`, the “activity change, negative = inhibition” value was inactive: -0.445%.

For the compound `CC[C@]12c3[nH]c4cc(CCC(=O)N(C)C)ccc4c3CCN1C(=O)[C@@H](CC(=O)NCCCN(C)C)C[C@@H]2C(=O)N1CCN(C(=O)c2ccco2)CC1`, the “activity change, negative = inhibition” value is inactive: -0.977%.

`Cc1noc(C)c1CSc1nc2[nH]ncc2c(=O)n1-c1ccccc1`: the “activity change, negative = inhibition” value is inactive: -5.84%.

As for `CCc1cc2c(=O)[nH]c(-c3ccccn3)nc2s1`, the “activity change, negative = inhibition” value was inactive: 14.9%.

Regarding `CCn1c2ccccc2c2cc(NC(=O)c3ccccc3-c3ccccc3C(=O)O)ccc21`, the “activity change, negative = inhibition” value is inactive: -0.464%.

For the compound `COc1cc2sc(-c3ccc(S(C)(=O)=O)cc3)c(C#CCO)c2cc1OC`, the “activity change, negative = inhibition” value is inactive: -0.578%.

Regarding `Oc1[nH]c2ccc(Br)cc2c1N=NC(=S)N1CCOCC1`, the “activity change, negative = inhibition” value is inactive: -28.4%.

Turning to `Cc1ccc(NC(=O)/C=C/c2ccco2)nc1`, the “activity change, negative = inhibition” value is inactive: 21.6%.

With `CC(/C=N/NC(=O)c1cc(-c2ccc(Cl)cc2)nc2ccccc12)=C\c1ccco1`, the “activity change, negative = inhibition” value was inactive: -1.82%.

Turning to `Cc1ccc(CNC(=O)Cc2ccc(-n3c(=O)[nH]c4ccsc4c3=O)cc2)cc1`, the “activity change, negative = inhibition” value was inactive: -1.57%.

For the compound `COc1ccc(C(=O)NN(C)c2nc(C(F)(F)F)nc3ccccc23)cc1`, the “activity change, negative = inhibition” value is inactive: -3.83%.

In the case of `Cc1nn(C)cc1CNC(=O)COc1ccc(Cl)cc1Cl`, the “activity change, negative = inhibition” value is inactive: 0.375%.

For the compound `Cc1nn(Cc2ccccc2)c2c1C(c1ccccc1)C(C#N)=C(N)O2` (configuration not stated), the “activity change, negative = inhibition” value is inactive: -1.53%.

With `C=CCn1c(SC2CCOC2=O)nc2sc(C)c(C)c2c1=O` (configuration not stated), the “activity change, negative = inhibition” value was inactive: -0.318%.

For the compound `Nc1nc(N)c(N=O)c(OCC2CCCCC2)n1`, the “activity change, negative = inhibition” value is inactive: -0.413%.

As to `CC(C)(C)NNC(=S)Nc1cccc(C(F)(F)F)c1`, the “activity change, negative = inhibition” value is inactive: -0.0838%.

On to `CC(=O)Nc1ccc(NS(=O)(=O)c2cc(-c3n[nH]c(=O)c4ccccc34)ccc2C)cc1`, for which the “activity change, negative = inhibition” value is inactive: -2.79%.

`N#CC1=C(N)OC2=C(CCc3ccccc32)C1c1ccccc1` (configuration not stated): the “activity change, negative = inhibition” value is inactive: -6.13%.

For `Cc1c(CCC(=O)N[C@@H](CCCNC(N)=O)C(=O)O)c(=O)oc2cc3oc4c(c3cc12)CCCC4`, the “activity change, negative = inhibition” value is inactive: -0.014%.

Take `CC1=NN(C(N)=S)C(=O)C1N=Nc1ccccc1` (configuration not stated): the “activity change, negative = inhibition” value is inactive: -0.825%.

For the compound `COc1ccc(S(=O)(=O)N2c3ccccc3OCC2C)cc1` (configuration not stated), the “activity change, negative = inhibition” value is inactive: -6.88%.

In the case of `O=C1N[C@H]2CC=C[C@H]2Nc2ccccc21`, the “activity change, negative = inhibition” value was inactive: -1.64%.

In the case of `CCOC(=O)C1CCN(S(=O)(=O)c2c(Cl)ccc3nonc23)CC1`, the “activity change, negative = inhibition” value is inactive: 1.28%.

On to `Cc1c(CCC(=O)NCCC(=O)O)c(=O)oc2c(C)c3oc4c(c3cc12)CCCC4`, for which the “activity change, negative = inhibition” value is inactive: 0.734%.

For the compound `COc1ccc(NC(=O)C(=O)NCC2CCCN2S(=O)(=O)c2ccc(C)cc2)cc1` (configuration not stated), the “activity change, negative = inhibition” value was inactive: -2.59%.

In the case of `COc1ccc(C(C)=O)cc1COC(=O)c1ccc(N)c([N+](=O)[O-])c1`, the “activity change, negative = inhibition” value is inactive: -0.216%.

With `CCOC(=O)c1c(C=O)c2sc(C)cc2n1C`, the “activity change, negative = inhibition” value is inactive: -0.818%.

`Cc1ccc2c(c1)C(=O)C(=O)N2CC1COc2ccccc2O1` (configuration not stated): the “activity change, negative = inhibition” value was inactive: -5.65%.

On to `COc1ccccc1N1CCN(C(=O)c2cc(=O)c3cc(C)cc(C)c3o2)CC1`, for which the “activity change, negative = inhibition” value is inactive: -8.65%.

Turning to `COc1ccc(C(=O)/C=C/c2ccc(O)cc2)c2c1CC(O)C(C)(C)O2` (configuration not stated), the “activity change, negative = inhibition” value is inactive: -0.966%.

Turning to `O=c1cc(-c2ccccc2)[nH]c2ccc(F)cc12`, the “activity change, negative = inhibition” value is inactive: -2.66%.

On to `NC(=S)Nc1nc2ccccc2s1`, for which the “activity change, negative = inhibition” value is inactive: -5.84%.

Take `CC(C)CCOc1ccc(CO[C@@H]2[C@H]3OC(C)(C)O[C@H]3O[C@@H]2C(O)CO)cc1` (some centres not stated): the “activity change, negative = inhibition” value was inactive: -1.09%.

Consider `COc1cc(OC)c2c(-c3cccc(-c4ccc(N(C)C)cc4)c3)cc(=O)oc2c1`, for which the “activity change, negative = inhibition” value was inactive: -8.24%.

Consider `COc1ccc(S(=O)(=O)NCc2ccccn2)cc1NC(=O)c1ccccc1C`, for which the “activity change, negative = inhibition” value was inactive: -0.0668%.

These data come from PubChem BioAssay AID651567 (National Center for Advancing Translational Sciences (NCATS), 2012).
